Laboratory results from PMC4077589.
No constants are given. Whether binding was seen depends on the method and setting. In cells and extracts the contact can be indirect. Some results given as binding are weak or reduced against the parent protein; the word gives no strength. Tags and fused reporters may be left off the sequences shown.

T1: C-terminally FLAG-tagged full-length TMEM115 (TMEM115-FL-FLAG) (human) (UniProt Q12893)
T1 sequence: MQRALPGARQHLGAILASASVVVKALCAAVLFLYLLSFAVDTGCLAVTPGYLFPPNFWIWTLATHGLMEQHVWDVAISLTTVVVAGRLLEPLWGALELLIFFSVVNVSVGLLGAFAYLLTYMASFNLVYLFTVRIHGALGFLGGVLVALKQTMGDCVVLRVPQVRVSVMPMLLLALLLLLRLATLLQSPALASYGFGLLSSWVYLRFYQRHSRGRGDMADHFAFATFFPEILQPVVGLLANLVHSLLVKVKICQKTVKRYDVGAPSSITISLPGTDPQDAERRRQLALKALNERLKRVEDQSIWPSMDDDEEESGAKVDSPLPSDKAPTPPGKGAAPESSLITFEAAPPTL


molecular target: T1, C-terminally FLAG-tagged full-length TMEM115 (TMEM115-FL-FLAG) (human); test: co-IP; FLAG immunoprecipitation from lysates of transfected HEK293 cells; lysis buffer 50 mM Tris-HCl pH 7.5, 150 mM NaCl, 1% Triton X-100; 4°C; immunoblotting

| Binder | binding |
| --- | --- |
| Myc–COG7 (transfected) (protein, UniProt P83436 1-770) MDFSKFLADDFDVKEWINAAFRAGSKEAASGKADGHAATLVMKLQLFIQEVNHAVEETSHQALQNMPKVLRDVEALKQEASFLKEQMILVKEDIKKFEQDTSQSMQVLVEIDQVKSRMQLAAESLQEADKWSTLSADIEETFKTQDIAVISAKLTGMQNSLMMLVDTPDYSEKCVHLEALKNRLEALASPQIVAAFTSQAVDQSKVFVKVFTEIDRMPQLLAYYYKCHKVQLLAAWQELCQSDLSLDRQLTGLYDALLGAWHTQIQWATQVFQKPHEVVMVLLIQTLGALMPSLPSCLSNGVERAGPEQELTRLLEFYDATAHFAKGLEMALLPHLHEHNLVKVTELVDAVYDPYKPYQLKYGDMEESNLLIQMSAVPLEHGEVIDCVQELSHSVNKLFGLASAAVDRCVRFTNGLGTCGLLSALKSLFAKYVSDFTSTLQSIRKKCKLDHIPPNSLFQEDWTAFQNSIRIIATCGELLRHCGDFEQQLANRILSTAGKYLSDSCSPRSLAGFQESILTDKKNSAKNPWQEYNYLQKDNPAEYASLMEILYTLKEKGSSNHNLLAAPRAALTRLNQQAHQLAFDSVFLRIKQQLLLISKMDSWNTAGIGETLTDELPAFSLTPLEYISNIGQYIMSLPLNLEPFVTQEDSALELALHAGKLPFPPEQGDELPELDNMADNWLGSIARATMQTYCDAILQIPELSPHSAKQLATDIDYLINVMDALGLQPSRTLQHIVTLLKTRPEDYRQVSKGLPRRLATTVATMRSVNY | binds |
| Myc–COG2 (transfected) (protein, UniProt Q14746 1-738) MEKSRMNLPKGPDTLCFDKDEFMKEDFDVDHFVSDCRKRVQLEELRDDLELYYKLLKTAMVELINKDYADFVNLSTNLVGMDKALNQLSVPLGQLREEVLSLRSSVSEGIRAVDERMSKQEDIRKKKMCVLRLIQVIRSVEKIEKILNSQSSKETSALEASSPLLTGQILERIATEFNQLQFHAVQSKGMPLLDKVRPRIAGITAMLQQSLEGLLLEGLQTSDVDIIRHCLRTYATIDKTRDAEALVGQVLVKPYIDEVIIEQFVESHPNGLQVMYNKLLEFVPHHCRLLREVTGGAISSEKGNTVPGYDFLVNSVWPQIVQGLEEKLPSLFNPGNPDAFHEKYTISMDFVRRLERQCGSQASVKRLRAHPAYHSFNKKWNLPVYFQIRFREIAGSLEAALTDVLEDAPAESPYCLLASHRTWSSLRRCWSDEMFLPLLVHRLWRLTLQILARYSVFVNELSLRPISNESPKEIKKPLVTGSKEPSITQGNTEDQGSGPSETKPVVSISRTQLVYVVADLDKLQEQLPELLEIIKPKLEMIGFKNFSSISAALEDSQSSFSACVPSLSSKIIQDLSDSCFGFLKSALEVPRLYRRTNKEVPTTASSYVDSALKPLFQLQSGHKDKLKQAIIQQWLEGTLSESTHKYYETVSDVLNSVKKMEESLKRLKQARKTTPANPVGPSGGMSDDDKIRLQLALDVEYLGEQIQKLGLQASDIKSFSALAELVAAAKDQATAEQP | binds |
| Myc–COG5 (transfected) (protein, UniProt Q9UP83 1-860) MGWVGGRRRDSASPPGRSRSAADDINPAPANMEGGGGSVAVAGLGARGSGAAAATVRELLQDGCYSDFLNEDFDVKTYTSQSIHQAVIAEQLAKLAQGISQLDRELHLQVVARHEDLLAQATGIESLEGVLQMMQTRIGALQGAVDRIKAKIVEPYNKIVARTAQLARLQVACDLLRRIIRILNLSKRLQGQLQGGSREITKAAQSLNELDYLSQGIDLSGIEVIENDLLFIARARLEVENQAKRLLEQGLETQNPTQVGTALQVFYNLGTLKDTITSVVDGYCATLEENINSALDIKVLTQPSQSAVRGGPGRSTMPTPGNTAALRASFWTNMEKLMDHIYAVCGQVQHLQKVLAKKRDPVSHICFIEEIVKDGQPEIFYTFWNSVTQALSSQFHMATNSSMFLKQAFEGEYPKLLRLYNDLWKRLQQYSQHIQGNFNASGTTDLYVDLQHMEDDAQDIFIPKKPDYDPEKALKDSLQPYEAAYLSKSLSRLFDPINLVFPPGGRNPPSSDELDGIIKTIASELNVAAVDTNLTLAVSKNVAKTIQLYSVKSEQLLSTQGDASQVIGPLTEGQRRNVAVVNSLYKLHQSVTKVVSSQSSFPLAAEQTIISALKAIHALMENAVQPLLTSVGDAIEAIIITMHQEDFSGSLSSSGKPDVPCSLYMKELQGFIARVMSDYFKHFECLDFVFDNTEAIAQRAVELFIRHASLIRPLGEGGKMRLAADFAQMELAVGPFCRRVSDLGKSYRMLRSFRPLLFQASEHVASSPALGDVIPFSIIIQFLFTRAPAELKSPFQRAEWSHTRFSQWLDDHPSEKDRLLLIRGALEAYVQSVRSREGKEFAPVYPIMVQLLQKAMSALQ | binds |

Continued, values first:

| binding | Binder |
| --- | --- |
| binds | Myc–COG8 (transfected) (protein, UniProt Q96MW5 1-612) MATAATIPSVATATAAALGEVEDEGLLASLFRDRFPEAQWRERPDVGRYLRELSGSGLERLRREPERLAEERAQLLQQTRDLAFANYKTFIRGAECTERIHRLFGDVEASLGRLLDRLPSFQQSCRNFVKEAEEISSNRRMNSLTLNRHTEILEILEIPQLMDTCVRNSYYEEALELAAYVRRLERKYSSIPVIQGIVNEVRQSMQLMLSQLIQQLRTNIQLPACLRVIGYLRRMDVFTEAELRVKFLQARDAWLRSILTAIPNDDPYFHITKTIEASRVHLFDIITQYRAIFSDEDPLLPPAMGEHTVNESAIFHGWVLQKVSQFLQVLETDLYRGIGGHLDSLLGQCMYFGLSFSRVGADFRGQLAPVFQRVAISTFQKAIQETVEKFQEEMNSYMLISAPAILGTSNMPAAVPATQPGTLQPPMVLLDFPPLACFLNNILVAFNDLRLCCPVALAQDVTGALEDALAKVTKIILAFHRAEEAAFSSGEQELFVQFCTVFLEDLVPYLNRCLQVLFPPAQIAQTLGIPPTQLSKYGNLGHVNIGAIQEPLAFILPKRETLFTLDDQALGPELTAPAPEPPAEEPRLEPAGPACPEGGRAETQAEPPSVGP |
| binds | ERGIC53–GFP (protein, UniProt P49257 31-510) DGVGGDPAVALPHRRFEYKYSFKGPHLVQSDGTVPFWAHAGNAIPSSDQIRVAPSLKSQRGSVWTKTKAAFENWEVEVTFRVTGRGRIGADGLAIWYAENQGLEGPVFGSADLWNGVGIFFDSFDNDGKKNNPAIVIIGNNGQIHYDHQNDGASQALASCQRDFRNKPYPVRAKITYYQNTLTVMINNGFTPDKNDYEFCAKVENMIIPAQGHFGISAATGGLADDHDVLSFLTFQLTEPGKEPPTPDKEISEKEKEKYQEEFEHFQQELDKKKEEFQKGHPDLQGQPAEEIFESVGDRELRQVFEGQNRIHLEIKQLNRQLDMILDEQRRYVSSLTEEISKRGAGMPGQHGQITQQELDTVVKTQHEILRQVNEMKNSMSETVRLVSGMQHPGSAGGVYETTQHFIDIKEHLHIVKRDIDNLVQRNMPSNEKPKCPELPPFPSCLSTVHFIIFVVVQTVLFIGYIMYRSQQEAAAKKFF |
| binds | Myc–COG4 (transfected) (protein, UniProt Q9H9E3 1-785) MADLDSPPKLSGVQQPSEGVGGGRCSEISAELIRSLTELQELEAVYERLCGEEKVVERELDALLEQQNTIESKMVTLHRMGPNLQLIEGDAKQLAGMITFTCNLAENVSSKVRQLDLAKNRLYQAIQRADDILDLKFCMDGVQTALRSEDYEQAAAHTHRYLCLDKSVIELSRQGKEGSMIDANLKLLQEAEQRLKAIVAEKFAIATKEGDLPQVERFFKIFPLLGLHEEGLRKFSEYLCKQVASKAEENLLMVLGTDMSDRRAAVIFADTLTLLFEGIARIVETHQPIVETYYGPGRLYTLIKYLQVECDRQVEKVVDKFIKQRDYHQQFRHVQNNLMRNSTTEKIEPRELDPILTEVTLMNARSELYLRFLKKRISSDFEVGDSMASEEVKQEHQKCLDKLLNNCLLSCTMQELIGLYVTMEEYFMRETVNKAVALDTYEKGQLTSSMVDDVFYIVKKCIGRALSSSSIDCLCAMINLATTELESDFRDVLCNKLRMGFPATTFQDIQRGVTSAVNIMHSSLQQGKFDTKGIESTDEAKMSFLVTLNNVEVCSENISTLKKTLESDCTKLFSQGIGGEQAQAKFDSCLSDLAAVSNKFRDLLQEGLTELNSTAIKPQVQPWINSFFSVSHNIEEEEFNDYEANDPWVQQFILNLEQQMAEFKASLSPVIYDSLTGLMTSLVAVELEKVVLKSTFNRLGGLQFDKELRSLIAYLTTVTTWTIRDKFARLSQMATILNLERVTEILDYWGPNSGPLTWRLTPAEVRQVLALRIDFRSEDIKRLRL |
| binds | Myc–COG1 (transfected) (protein, UniProt Q8WTW3 1-980) MATAATSPALKRLDLRDPAALFETHGAEEIRGLERQVRAEIEHKKEELRQMVGERYRDLIEAADTIGQMRRCAVGLVDAVKATDQYCARLRQAGSAAPRPPRAQQPQQPSQEKFYSMAAQIKLLLEIPEKIWSSMEASQCLHATQLYLLCCHLHSLLQLDSSSSRYSPVLSRFPILIRQVAAASHFRSTILHESKMLLKCQGVSDQAVAEALCSIMLLEESSPRQALTDFLLARKATIQKLLNQPHHGAGIKAQICSLVELLATTLKQAHALFYTLPEGLLPDPALPCGLLFSTLETITGQHPAGKGTGVLQEEMKLCSWFKHLPASIVEFQPTLRTLAHPISQEYLKDTLQKWIHMCNEDIKNGITNLLMYVKSMKGLAGIRDAMWELLTNESTNHSWDVLCRRLLEKPLLFWEDMMQQLFLDRLQTLTKEGFDSISSSSKELLVSALQELESSTSNSPSNKHIHFEYNMSLFLWSESPNDLPSDAAWVSVANRGQFASSGLSMKAQAISPCVQNFCSALDSKLKVKLDDLLAYLPSDDSSLPKDVSPTQAKSSAFDRYADAGTVQEMLRTQSVACIKHIVDCIRAELQSIEEGVQGQQDALNSAKLHSVLFMARLCQSLGELCPHLKQCILGKSESSEKPAREFRALRKQGKVKTQEIIPTQAKWQEVKEVLLQQSVMGYQVWSSAVVKVLIHGFTQSLLLDDAGSVLATATSWDELEIQEEAESGSSVTSKIRLPAQPSWYVQSFLFSLCQEINRVGGHALPKVTLQEMLKSCMVQVVAAYEKLSEEKQIKKEGAFPVTQNRALQLLYDLRYLNIVLTAKGDEVKSGRSKPDSRIEKVTDHLEALIDPFDLDVFTPHLNSNLHRLVQRTSVLFGLVTGTENQLAPRSSTFNSQEPHNILPLASSQIRFGLLPLSMTSTRKAKSTRNIETKAQVVPPARSTAGDPTVPGSLFRQLVSEEDNTSAPSLFKLGWLSSMTK |
